Measurements: the supplement of paper PMC4466236
The full ranking holds about 33,000 sequences; the median of “E-score (dimensionless, -0.5 to 0.5)” is about -0.058, and the highest 2% start at about 0.35. Some of the results follow.

system: MvaT; experiment: PBM 8-mer E-score (mean of HK and ME arrays) (E-score (dimensionless, -0.5 to 0.5)); higher = stronger relative binding preference; most listed sequences are background and not binding sites
Summary of the method: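 Full-length P. aeruginosa MvaT, with glutathione S-transferase fused to its N-terminus (cloned into pTH6838 by isothermal assembly), was tested by protein binding microarray using a previously described protocol. Two universal double-stranded 60-mer arrays (ME and HK) were used, each with a constant 25-mer primer region and a variable 35-mer region covering all 8-mers. The rank-based 8-mer E-score (-0.5 to 0.5) is the mean of the two arrays, parsed with a custom Python script.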

| Sequence | PBM 8-mer E-score |
| --- | --- |
| AAGCTGGC | -0.254 |
| CAGGGAAA | 0.0169 |
| AATCCGAA | 0.0294 |
| GCATTTCA | 0.0481 |
| GATATGGA | 0.105 |
| AGGTTCGG | -0.0994 |
| AGGCGACA | -0.0475 |
| ATACATTA | 0.39 |
| ATCCGTGG | -0.305 |
| AATGTCCC | -0.0667 |
| AGACCGGC | -0.122 |
| GACTAGTC | -0.0899 |
| AGTATACC | 0.234 |
| CAGAACCC | -0.277 |
| CTGCCCTC | -0.248 |
| GTACCCAA | -0.0609 |
| CACATCTA | 0.085 |
| AGAACCGA | -0.0571 |
| GCGACCAC | -0.154 |
| CAAAGGTA | -0.113 |
| TGTTCCAA | 0.0797 |
| GGCACAAC | -0.19 |
| CGAGCTCC | -0.312 |
| GTTCCTAA | -0.0274 |
| CCAACTCA | 0.0702 |

| Sequence | PBM 8-mer E-score |
| --- | --- |
| ACATTGAC | 0.169 |
| GCATGAGA | -0.173 |
| CCTCACAC | -0.14 |
| ACTACTGC | 0.0618 |
| CAAACGGG | -0.0101 |
| AGGGGTGA | -0.056 |
| ACTTTGGC | 0.0122 |
| ACTATCGA | 0.201 |
| ATAAAACG | 0.213 |
| CCGCAGCG | -0.26 |
| GAACCGTA | -0.0857 |
| GCGTAAAC | -0.0643 |
| CTCGCTGA | -0.159 |
| ATGAACGC | -0.14 |
| GTCGAAAC | 0.0163 |
| GGTTGTAC | 0.11 |
| CAAAAATA | 0.287 |
| CACTTCGA | -0.0103 |
| CTACAGGC | -0.224 |
| ATAGCGTC | -0.0949 |
| GCCACGCC | -0.196 |
| GATTCAGC | -0.0394 |
| CCAAATCC | -0.193 |
| ACATTTCC | 0.134 |
| GCGAGGGA | -0.251 |

| Sequence | PBM 8-mer E-score |
| --- | --- |
| ACATGTTG | 0.11 |
| CTATCCGA | -0.0723 |
| CAGACTGG | -0.0253 |
| CCACATCC | -0.0308 |
| TCCTATAA | 0.161 |
| CAATAATG | 0.322 |
| TGAAGAAA | 0.214 |
| GAAGACAA | 0.0767 |
| GCCTAGAA | -0.0688 |
| AGTCGTGC | -0.0662 |
| AGGTCCCC | -0.37 |
| CAGGTGCG | -0.156 |
| ACTCAATC | 0.0599 |
| TAGTTAGA | 0.178 |
| AGTTGCAC | 0.0703 |
| ATGTTAGC | 0.069 |
| ACGTTCGC | -0.187 |
| AGAACGGC | -0.166 |
| CCATGAAC | -0.0875 |
| TATGGACA | 0.0866 |
| ACTGGCTC | -0.0916 |
| AATCAACG | -0.0388 |
| GGTACACA | -0.0929 |
| CACAGATG | -0.0775 |
| CTAGGTTC | -0.048 |

| Sequence | PBM 8-mer E-score |
| --- | --- |
| CGTGCGGA | -0.146 |
| AATCCGTG | -0.11 |
| CAGGAGAA | -0.0765 |
| ACATTCTC | -0.00911 |
| ACCCAGAC | -0.0473 |
| ACACCGCG | -0.108 |
| CCTGTGAG | -0.0976 |
| CCTTATCA | 0.0843 |
| GAACCGGC | -0.208 |
| AATCGGCT | -0.105 |
| GCCCATCC | -0.103 |
| TACTAACA | 0.301 |
| CGGCGGCC | -0.272 |
| CATTGTGC | -0.088 |
| CAGGGCAG | -0.325 |
| AGTATTCG | 0.00317 |
| CAAAGTTC | 0.278 |
| CTTATTAA | 0.362 |
| AATTCTAA | 0.318 |
| CTTGTTGA | 0.0529 |
| ACATTGCT | -0.0355 |
| TGGGGAAA | 0.0333 |
| CGGTCCTA | -0.157 |
| CCTAAATC | -0.0235 |
| CATAAAAA | 0.179 |

| Sequence | PBM 8-mer E-score |
| --- | --- |
| GGATTCAA | -0.000816 |
| CAGCATAA | 0.103 |
| AAACATCG | 0.105 |
| AACACCTT | 0.0796 |
| TAGCCACA | -0.044 |
| TCTTCCAA | -0.0144 |
| GACGAGGC | -0.217 |
| GAATACTA | 0.212 |
| ATAGGTTA | 0.0408 |
| GACGTTCC | -0.252 |
| AGTAGACT | 0.122 |
| GCATATTA | 0.278 |
| GCGTTTCC | -0.151 |
| AGTCGTAG | -0.223 |
| CAACGCTC | -0.268 |
| CAGAGGAG | -0.252 |
| CCTTGGCC | -0.19 |
| CCTTTCAC | -0.133 |
| ATTGGCCG | -0.0502 |
| TACAGGAA | 0.025 |
| CTACCTTA | 0.103 |
| ATGATTCG | 0.0176 |
| GAGTTCTA | 0.059 |
| AGCGTGAT | -2.7e-05 |
| GTACGTCA | -0.1 |

| Sequence | PBM 8-mer E-score |
| --- | --- |
| CAGACGCC | -0.25 |
| AGGCGAAG | -0.0545 |
| CCGCCCAA | -0.00322 |
| ATTTGCAG | 0.119 |
| GCGTTCCA | -0.0496 |
| AGAACCAG | -0.201 |
| GGTTCAAA | -0.0223 |
| ATTAAGTG | 0.345 |
| CGCACCAG | -0.147 |
| CGTATCCC | -0.0821 |
| CAGGAATC | -0.2 |
| TATAATGA | 0.373 |
| ATTTCATC | 0.0474 |
| GCGCGGGA | -0.253 |
| GCGCCACC | -0.15 |
| ATCTGTGG | -0.104 |
| GCAGCAGA | -0.184 |
| GCGTTACA | 0.0339 |
| GAAAAAGA | 0.11 |
| GCAAAAAA | 0.209 |
| ATTCCGGA | 0.138 |
| GTTTTCTA | 0.0431 |
| ATAATCCG | 0.228 |
| GCCCTGTA | -0.11 |
| AGTACTTC | 0.178 |

| Sequence | PBM 8-mer E-score |
| --- | --- |
| CTGAGGGC | -0.218 |
| ATAAATAT | 0.44 |
| CGGTATCC | -0.219 |
| ACCACACT | 0.00724 |
| TTACCCAA | 0.121 |
| CGTGTAAC | -0.0971 |
| ATCCCTCC | -0.246 |
| TAGCTTGA | 0.068 |
| TAGTGCGA | 0.178 |
| CCCTCGCG | -0.291 |
| GACGAAGA | -0.134 |
| ATAATTGA | 0.338 |
| GAGATTAC | 0.135 |
| CGCACGGA | -0.204 |
| TCGCACCA | -0.145 |
| GCGGCCAC | -0.244 |
| CGGTCGCC | -0.265 |
| CTACACCC | -0.0475 |
| CGACCGTC | -0.199 |
| ACAACCGA | 0.0543 |
| ATTATGCC | 0.219 |
| CAGACATG | -0.187 |
| AGCTACCC | -0.217 |
| AAACCTCG | 0.0214 |
| ACAGTCCT | 0.0332 |

| Sequence | PBM 8-mer E-score |
| --- | --- |
| ATCCTCAC | -0.146 |
| ATTGAAGA | 0.139 |
| AATTCACT | 0.0569 |
| AGCGCGCG | -0.184 |
| GCTCGCTA | -0.0743 |
| AGTACCAT | -0.000649 |
| AGTGAGAA | -0.0424 |
| TGGAATAA | 0.312 |
| ATAGGAGG | -0.217 |
| TAATACTA | 0.37 |
| ACTGACTG | -0.0633 |
| CCTAATGC | -0.142 |
| ACGGAGCC | -0.0764 |
| AGGCGTAC | -0.147 |
| AACGGACA | -0.037 |
| CTGATAAC | 0.136 |
| ATCTAAAA | 0.233 |
| ACCCGAAT | 0.059 |
| AATTTTTC | 0.14 |
| CGCACTCC | -0.32 |
| CGTTCGCC | -0.251 |
| CAGGGGAA | -0.161 |
| GAACCGCC | -0.207 |
| TCCCCGGA | -0.26 |
| CTAGTTTC | 0.0423 |

| Sequence | PBM 8-mer E-score |
| --- | --- |
| CGTAAGGC | -0.053 |
| TCCTCGAA | -0.00625 |
| GAAAATTC | 0.0774 |
| GACTTAGC | -0.145 |
| ACTTGTAG | 0.105 |
| ACCTCGGC | -0.225 |
| ACAGTGCC | -0.02 |
| CACAATCA | 0.0803 |
| GGATACAC | -0.0125 |
| AGACGCAT | -0.0791 |
| CCATAAAG | -0.0677 |
| ATCTTGCC | 0.0286 |
| ATCCGCAC | -0.144 |
| AAACTGAT | 0.145 |
| GCTAACAA | 0.0687 |
| GGCGTGCA | -0.107 |
| AAGTCTTA | 0.253 |
| GTAACAAC | 0.198 |
| AACCAGTA | -0.00423 |
